In the RNAGym collection of RNA variant scans (doi:10.1073/pnas.2313332121):
This sample is rich in variants without activity.

B1: TPR 5TU (parent)
chain: GGAUCUUCUCGAUCUAACAAAAAAGACAAAUCUGCCACAAAGCUUGAGAGCAUCUUCGGAUGCAGAGGCGGCAGCCUUCGGUGGCGCGAUAGCGCCAACGUUCUCAACUAUGACACGCAAAACGCGUGCUCCGUUGAAUGGAGUUUAUCAUG

Variants of: B1
Assay: polymerase ribozyme fitness, log enrichment relative to wild type (log ratio); higher = more active; in vitro selection for triplet polymerase activity
How it was run: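 Fitness measures genotype enrichment against wild-type enrichment on a logarithmic scale, with inverse-variance-weighted averaging of replicates. The logarithm is base 2, and genotypes were kept only with ≥10 input reads and ≥1 read per output in Illumina sequencing. The sequenced libraries came from one triplicate in vitro selection round, including frozen incubation at −7 °C, of PCR-built, transcribed mutant libraries of each subunit of a heterodimeric triplet polymerase ribozyme.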

Variant	polymerase ribozyme fitness (log ratio)
G25A A26C C63G A66G C72U G80U G92U A98U U109C G152C	≤ -4.2
A26G A49U C87A	≤ -4.2
G25C U90C A91G G117A	≤ -4.2
G25U C69G G83U C95U G152U	≤ -4.2
A24U A40C G42C C93U C105A U139G	≤ -4.2
A24U A37G	-2.41
G25U G88C A98G G100C A150C	≤ -4.2
G25U C57G C75U C105U A107C	≤ -4.2
G25C G58A C72A G80A C87A C118G	≤ -4.2
G25C G48A C54U G68C C95U G141C	≤ -4.2
A26G A28G U44A U61C	≤ -4.2
G25C C54U A73G G84A C85A A89C	≤ -4.2
A24U C27U C36U G58C G83A G112U A121G G124C	≤ -4.2
G25U C43A G58C A60C A91G	≤ -4.2
A24U C32U A40C A47U	≤ -4.2
G25U A49U C57U A64U A89G C93A	≤ -4.2
G25U C32A G58C G94C	≤ -4.2
G25C G59U G74A G88A G140U	≤ -4.2
G25U C99A U104G	≤ -4.2
G25A C35U A66U G94A A138G U151G	≤ -4.2
A24U U31A C63G C76A	-3.16
G25U U53A G81A A91U C118A A137U	≤ -4.2
A24U A49C G58A U61A G88U A98G A110U G141U	≤ -4.2
G25U A41C U61A U77G C87A C125A	≤ -4.2

Variant	polymerase ribozyme fitness (log ratio)
G25A A29G C32G U44A C79A G94A C105A C116U U134A	≤ -4.2
G25C C36U C87G A91U G100C C103U	≤ -4.2
G25A C75A G81A G88A G124A A138U	≤ -4.2
G25C C51U G92A	≤ -4.2
A26C A39G G46C U55G C57U C99G	≤ -4.2
G25A A28U G34A C57G C99U C118U G143C	≤ -4.2
A26C C38U C85U C149A	≤ -4.2
G25A C27U G34U U53A G86A C132G	≤ -4.2
G25A U56A	-1.67
A24U G83A G84A C105A G128C	≤ -4.2
A26G A28U G42C G59C C96G C105G C116U	-4.04
A26C G68C A122C U135C U139G U145G	≤ -4.2
A26C C87U A122G A142G	-3.94
G25C C79G G92U	≤ -4.2
G25U U61A G84U C85A A89U C93A C103A G141U	≤ -4.2
A24U G48A A49G G50A U55A C123A G136C	≤ -4.2
A26G A37C C38U G59A C87U C99U C118A A121G G136A	≤ -4.2
A26C C57U C99U A138G	≤ -4.2
A24U A52G G68U G80A U102A	≤ -4.2
A26C A49G G58U U77G G136C U146G	≤ -4.2
G25C A39G A49C G59U U101A A107G G126A	≤ -4.2
G25C G84U C87G	≤ -4.2
A26C A52C C85U G117A A142G	-3.88
A24U A39U C57G G88C G128C U148A	≤ -4.2

Variant	polymerase ribozyme fitness (log ratio)
G25U A40U A47G C79A A119U U144G	≤ -4.2
A26C C87A U104G C105U C125G G141A U148G	≤ -4.2
A24U G88C U139C U144C	≤ -4.2
G25U G58C G94U G136U	≤ -4.2
G25U C36A G42C U55A G59A C75G C96U G141A	≤ -4.2
G25A C35U U56A A60C C85A C93U A106C	≤ -4.2
G25U A49C G88U A97G	≤ -4.2
A26C A29U G126U A138C	≤ -4.2
A26C C54G A121G	-2.79
A26C A28U C57U G62A G67C A73G C93G U101G C123A	≤ -4.2
A24U A49C A52C G62A C87A C105U	≤ -4.2
A24U G50U G59A	0.438
A24U C35A C63U C87U U139C	≤ -4.2
G25U A26U U56A G86C	≤ -4.2
G25U G65C U127G U135A G140U	≤ -4.2
A26C C35U C43U C87G	≤ -4.2
G25U A52G U56A A60G G133C	-4.06
A24U C32G G86A C114U	≤ -4.2
G25U A30G C51A C105U G133C	≤ -4.2
A26C U53A C85U C116A U151A	≤ -4.2
A26C G50C C51U A52G C54G U56A G58A C99G	≤ -4.2
A24U C54U C99G C105A U135G	≤ -4.2
G25U C76G G92A A119U U145A C149A U151G	≤ -4.2
A26C U53A G58A	-2.74

Variant	polymerase ribozyme fitness (log ratio)
A26C A41G G42C U101A G152U	≤ -4.2
G25C A40C G42U G58A A64G C96U	≤ -4.2
A24U U56A	0.265
A26G A47G U55G G140C	≤ -4.2
G25U A29C	≤ -4.2
A26C C38U C118G U130G	≤ -4.2
A24U G80C G86A G136U	≤ -4.2
A26C G71U G84U	≤ -4.2
A24U A41C U44A G58C G80C G94U U151C	≤ -4.2
G25U G50A C95A C105A C114U C116A	≤ -4.2
G25C C32U U53A G59C A91U C103G U111C	≤ -4.2
A26G A29C U61A U148G	≤ -4.2
G25C C27A C35U C63G A64C C85U A97U C114G	≤ -4.2
A24U G58C C63G G80A C96G U145A	≤ -4.2
A24U A40G C72A	≤ -4.2
A24U G46C A60C U102G	≤ -4.2
A26G A37G A40G G58U G65U G74C G88C U101C U151A	≤ -4.2
A26C U33C A98G	≤ -4.2
G25C C27U U45C G71U U82A G83A G92U	≤ -4.2
G25C C38G U45C G86A G94U U109G U146C	≤ -4.2
G25A U45A A49G U53A C85U A97U A107C C116A	≤ -4.2
A24U C54G U56G C93A G100U C131A U134G	≤ -4.2
G25C A40C C57U C85A C99U	≤ -4.2
G25A A41C A52G G67U G83U G136A	≤ -4.2

Variant	polymerase ribozyme fitness (log ratio)
G25U C76G G83U A138C	≤ -4.2
A26C A39C A49U U55G U61A A66C G67A A73U G84U	≤ -4.2
A24U G62A C79G	≤ -4.2
A26C U45A C116G G124C	≤ -4.2
A24U C35G C36U G68A C93A C131U	≤ -4.2
A26C C87G C116A	≤ -4.2
A24U C57U C69G G84A C87A A115C	≤ -4.2
G25A C51U G92U A119U G124U	-3.78
G25C U31G A107U A137C	≤ -4.2
G25U C63G G88C C108U	-3.94
A24U A39G C79A C131G	≤ -4.2
G25U A30U C32A C51G U53A U55C A73C C79A A91C G94C A97C C105U A119C C149U	≤ -4.2
A24U G48C A64G C87A A98G U148G	≤ -4.2
A26C U53G G88C C96U C118A	≤ -4.2
A26C C57U C85G G92U	≤ -4.2
A24U A49G A73G C75G U101A	≤ -4.2
A26C G50U A120U U135C G136U U144G	≤ -4.2
A26G A49U A147C	≤ -4.2
A26C C27U A37G A60U C69G C85A U102C C125U	≤ -4.2
A24U G83U C85G G126U	≤ -4.2
G25A A30G U53A	≤ -4.2
G25U A49C	≤ -4.2
G25C C54U C75G U90C C93A G117U	≤ -4.2
A24U A49C C54U C75G C85A A122U U144C A147C	≤ -4.2

Variant	polymerase ribozyme fitness (log ratio)
A24U U33C C35G C63A G68U C87U	≤ -4.2
A24U G50U G88U G100U	≤ -4.2
A26C C57G U77G	≤ -4.2
A26C A30U C96U U102C C103U U111G A113C A115U C125G	≤ -4.2
G25A U111G	≤ -4.2
A26C A52G G58U U78A A97U	≤ -4.2
A24U U55A G62A C108U A138G	≤ -4.2
A26C C27G G34A U55A	≤ -4.2
A24U G84U	-2.26
A24U U56G G65C G68A A91U U135C	≤ -4.2
A26C U55A G70A C76G C95U C105G C114A	≤ -4.2
G25A C93A U104G	≤ -4.2
A26C U56C A66C G84C C99U C131U A137U	≤ -4.2
A24U G42C G67U C87G C99A	≤ -4.2
G25U U33G G86A A107C A110U G141U U145C	≤ -4.2
A24U A97U U104C A107G C132U	≤ -4.2
A24U G88C C95G C123G	≤ -4.2
G25C A29C C38G A39C C72A A137G G141C	≤ -4.2
A26C C87A U101G	≤ -4.2
A26C A66U U78G G92A	≤ -4.2
G25C C54G C96G G117C A138G C149G	≤ -4.2
A24U C99A G133U G143C U146G	≤ -4.2
G25A A39U G92C C123U U144A	≤ -4.2
A26G A60U C85A C93A U109A	≤ -4.2

Variant	polymerase ribozyme fitness (log ratio)
A26C A37C U44G A52U A73U G80A G84U C95G	≤ -4.2
A26G A60G	-3.55
A26C U31G G42A U61G G71A G84A A97U G100A	≤ -4.2
A24U G48U G83A	-1.25
G25U A64G C99U U101A C116G	≤ -4.2
A24U C96U C129G	-3.47
A26C C38A A39U	≤ -4.2
G25U A30G C63A G92U C116U	≤ -4.2
G25C G50A G65A G88C A121U	≤ -4.2
A24U G94U C96A U102C C125G C131A G140C	≤ -4.2
G25C A41G U44A G48C C85A C93G	≤ -4.2
G25U G100U	≤ -4.2
A26G A41G A47U C132U A142U	≤ -4.2
A26C G68A C75A G84A C103A C105U	≤ -4.2
A24U C63G U151G	≤ -4.2
A26C A47G G50U G58A G59U C85A C118U	≤ -4.2
A24U G58A G88U	≤ -4.2
A24U A41U G42C A115G C125A	≤ -4.2
A24U U33G U77A C87U	≤ -4.2
A24U A91G G94A A97G C116A	≤ -4.2
A26C C35U A40G G74A C75U	≤ -4.2
G25A C51U G59C G88A U102G G136U	≤ -4.2
A24U C72U C85G A137G A142C	≤ -4.2
